The source gives no read counts; variants with many changes may rest on few reads.
B1: OR4K15 (parent)
chain: GUUAACGGUCAUAGGCCAUGGAAACUAGGAGCACCAUUUCGCUGCCAGUGAAGAAAUGAACAAAGAAAAUCUGGGCCAGGCAGGCAUCAAAAGAAAUAGUCUUGCGCUCAACCAGAAAGUCUGUAAUCAUUUUAAGGGUA

Variants of: B1
Test: self-cleavage, relative activity (ratio to wild type); higher = more cleavage; in vitro, sequencing; the parent is a self-cleaving ribozyme

| Variant | self-cleavage |
| --- | --- |
| A22G U38C U100A | 1.52 |
| U87C A91G U132C U139C | 0.44 |
| A52G A92G A140G | 0.28 |
| G14U A56G G83A A117G | 2.3 |
| A60G A95G C105U | 0.15 |
| U2C A90G A114U | 0.04 |
| C17U A47U A59U U120A | 0.75 |
| U2C A5U U39A A66G | 1.46 |
| A22U A47C U133C | 1.14 |
| G80A U124C A125G | 0.16 |
| A13G C32U A94G A116U | 0 |
| A24G U43A A56G A82C | 0.36 |
| A18U U43A U49A A64G A110U A116G | 0.43 |
| A13G A27G G28U G75C | 0.23 |
| A47G A63G A118G A126G U132C | 0.21 |
| A64U A89G A114G | 0.02 |
| C40U A69G A96G | 1.6 |
| A33G C45U A91G | 0.72 |
| U49G A54G A68G C88U A95G A126U | 1.2 |
| U39C A55G U70C U87C A95G | 1.01 |
| A51G A69G U120C | 0.89 |
| U9A U122C U131C | 0.68 |
| A30U A68G C71A A86G | 0.32 |
| A60U A67G U120C | 0.62 |

| Variant | self-cleavage |
| --- | --- |
| A36G A59G A82C U102C U103C A126G | 0.03 |
| A22G A66G A67U G115U U139A | 0.09 |
| A62G A82G U102C | 0.83 |
| A18U A114U A135G | 0.01 |
| U43C A95G U130C | 2.01 |
| A23G C32U A62G A86U | 0.89 |
| A52U U87C A94G | 0.93 |
| A52G A111G U131C | 0.02 |
| A30G U72C A91G | 0.04 |
| A36C A60C A66G | 1.23 |
| U37C G48U G50U U103A | 0.84 |
| A11G U39C A67G A91U | 1.04 |
| U57C A63G A69G A82G A114G | 0.05 |
| U43A U87C U103A U127C | 0.09 |
| A24G A33G A54G | 0.73 |
| G74C A126G A134G | 0.22 |
| A23G U39A A95G | 1.55 |
| U39A A51G A86U A126G | 0.53 |
| A69G A90U U132A | 1.58 |
| U12C A59G C85G A135G | 0.43 |
| A30U A67G G115A A125G | 0.03 |
| A55G A62U A118U | 0.64 |
| A30G A33G A56G A64G U122C | 0.74 |
| U12C A33G C71U U132C | 0.04 |

| Variant | self-cleavage |
| --- | --- |
| A23G U37C U38C A118G U120C | 0.12 |
| A60G A67G A95G A116G A129G U132C | 0.23 |
| A24G A67G A117G U122C | 1.96 |
| U2C A24U A52G A60G U87C | 1.51 |
| C25G A67G A82G A114G | 0.21 |
| C25U U49C A52G | 1.67 |
| U2A U38C A94G | 0.64 |
| U57C A67G U139C | 0.91 |
| U26A A47U U49C A54G A60U | 0.41 |
| A54G A116G U131C | 0.32 |
| A4G A23G A68G C77U | 0.79 |
| A33G A86G A140G | 0.52 |
| A62U A111C A117G | 0 |
| U9C A23G C113A U122C | 0.06 |
| U3C U70C U133C | 1.74 |
| A13U A36G U131C | 0.88 |
| C113U A117G U131A | 0.01 |
| A22G A66U A118U | 0.76 |
| U12A U37A U39C A78G A118G | 0.1 |
| A90G A91G U103A | 0.67 |
| A13G A22U U43C A98G | 0.83 |
| A62G U108A A116G | 0.02 |
| U9C A52G U120C | 0.73 |
| A59U A82G A118G | 0.32 |

| Variant | self-cleavage |
| --- | --- |
| U9C A27G A82U | 0.31 |
| A33U U37A U108C | 0 |
| U49C A51G U120A | 1.44 |
| A22G U39C U108C | 0.04 |
| A52G A56G A59G A60G A95G A110U | 1.11 |
| A4U U87A A116G | 1.42 |
| A68G U70C A95G A111C U122C | 0 |
| U72A A78G C109A | 0.08 |
| U49C A52G A66U U124C | 0.85 |
| G50A A62G C128U | 1.67 |
| A13G A27U A134G | 1.4 |
| G75A A91C U133C | 0.09 |
| G14U A24G A56G A116G U130C | 1.02 |
| A23G A66G A86G | 0.21 |
| C6U U70A A78G U108A | 0 |
| A24G A36G U122C U139C | 0.28 |
| U3C U37C A47G | 0.98 |
| U49C A59G A118G | 0.54 |
| A33U U38C A56G U100C | 2.28 |
| G29C A91G A92U A117G | 2.75 |
| G8A G73U A78G A117G U131C | 0.12 |
| A23G G74A U108C A114U | 0.02 |
| C35A A55G A60G | 0.23 |
| U3C A67G A95G A140G | 1.68 |

| Variant | self-cleavage |
| --- | --- |
| U70C A92G U102C A111C | 0 |
| G8C U43C U100C A111C | 0.01 |
| A18U A54G A95G A117G | 2.7 |
| C17U A52G U122C | 0.46 |
| A54G A68G A90G A96G U100C U133A | 2.39 |
| A67G A78U A98C | 0.43 |
| A30G A47G A92G A110U C113U | 0.01 |
| U2C A118U U132A | 0.74 |
| G29U C88U A89G A117U | 0.62 |
| A47U A59G A96G A117G | 0.95 |
| A13G A117G A140U | 1.38 |
| U39A C81U U100C U103C U120A | 0.73 |
| C16U U39C A94G A114G U124C | 0.55 |
| G14U A27G A111G | 0.06 |
| A66G A69C A89U | 1.76 |
| U3C U39C U72C | 0.03 |
| A27G A55G A114U | 0.07 |
| U3C A36G A56G A60G A89G | 1 |
| U2C A23G A94G A110G | 0.15 |
| A67G A86U A135G | 0.65 |
| A66G A92G U120C | 1.47 |
| U49G A68G C88U A116G | 1.39 |
| U2C A69G A94G | 0.27 |
| U2A A66G A89G A140G | 1.06 |

| Variant | self-cleavage |
| --- | --- |
| A11G U43C A64U A96G | 1.27 |
| A30G A33C A92G A117G | 1.41 |
| A4G A33G C76U U124C | 0.14 |
| U9A A64G U103C | 0.03 |
| A59G A64G A110G A116G U127C | 0.04 |
| A5G A54G A135G | 1.07 |
| A5G U39C A140G | 1.08 |
| A23G U57C U102A | 0 |
| U49A A52G A111G | 0.01 |
| U38C A52G A56G A82G U103C U108A | 0.03 |
| A62U A78U U120C | 0.23 |
| U26C A33G A55G A66G A69G A95G | 1.54 |
| U37C A56G A68G A86G | 1.04 |
| A23U A24G A59G A63G A78G U87C A95G | 0.12 |
| A24G G29A A56G A59G A60G A95G | 1.71 |
| A11C A22G U108C | 0.01 |
| U87C A95G G137A | 1.23 |
| A54G A90G A114C | 0.01 |
| U39C A56G U127C | 1.17 |
| A68G A92U U103C U124C | 0.48 |
| A24U A66G U102C | 1.1 |
| A24U U70A A98G | 0.23 |
| A27G A36G A59G | 0.7 |
| A56G A60G A67G | 1.21 |

| Variant | self-cleavage |
| --- | --- |
| A5G A18G G21A | 0.79 |
| U3C A11G A56G | 0.84 |
| C46U A55G A98G U103C | 0.27 |
| G1U A52G U87C A111G A125G | 0 |
| A67U U102C A126G | 1.18 |
| U49A U57A C61U A68G U108C U127C | 0.01 |
| A24G A67G A91G | 1.77 |
| U9G A22G C77U | 1.63 |
| A23G A89G A110G U139A | 0.09 |
| A13G A66U U102C | 1.75 |
| U37C U49C A78C A94G U100C | 0.42 |
| A22G A30G G83A G99A A111G | 0.02 |
| A56U G115A U120A U122A | 0.06 |
| U37C U49C A90C | 1.6 |
| A22G A51G A54G A96G G115U | 0.24 |
| A23G U49A U72C A91G | 0.36 |
| A52G A96G U139C | 1.51 |
| A23U G31A A67G | 1.5 |
| U9C U57C G99A | 0.21 |
| A47G A89U U131C | 0.93 |
| A23G C42U A78G | 0.26 |
| A36G G53A A91G U100C | 1.99 |
| A18U A63G A114C | 0.15 |
